Some of these densities may be calculated back from excess volumes.
Assay: xn = mol fraction of the nth substance listed
Settings: 100 kPa

COc1ccccc1 + CCCC[n+]1ccn(C)c1.O=S(=O)([N-]S(=O)(=O)C(F)(F)F)C(F)(F)F
mass density [kg/m3]
Settings	x1 = 0.1018	x1 = 0.2008	x1 = 0.3001	x1 = 0.4008	x1 = 0.5008	x1 = 0.6001	x1 = 0.7003	x1 = 0.8002	x1 = 0.9
298.15 K	1422.8	1405.2	–	1359.4	–	–	1245.4	1184.5	1103.7
318.15 K	1403.4	1386	1365.5	1340.6	1310.6	1273.8	–	–	1085.2
348.15 K	1375.1	–	1336.6	1311.9	1282.2	–	1199	1138.5	1057

CC(=O)c1ccccc1 + CCCC[n+]1ccn(C)c1.O=S(=O)([N-]S(=O)(=O)C(F)(F)F)C(F)(F)F
mass density [kg/m3]
Settings	x1 = 0.1001	x1 = 0.2301	x1 = 0.2995	x1 = 0.4002	x1 = 0.5003	x1 = 0.6014	x1 = 0.7002	x1 = 0.8003	x1 = 0.9
298.15 K	1418.9	1394.6	1379.7	1354.4	1324.4	1287.7	1243.7	1187.8	1116.4
318.15 K	1400.9	1376.5	–	1336.3	–	1269.8	1225.7	1169.9	1098.8
348.15 K	–	–	1334.1	1308.9	1279.2	1242.5	1198.7	1143.1	1072.3

— a compilation of properties of binary mixtures (doi:10.1016/j.jct.2013.04.008)
